Changes are numbered by the printed parent chain. Numbers in names are those of the source. ± gives the standard deviation of the averaged measurements. Laboratory Escherichia coli strains with one amino-acid change in an essential protein, pooled on minimal glucose agar with carbenicillin or gentamicin at twice the control MIC (plus kanamycin and chloramphenicol for the plasmids), 48 h. Fold change of barcode share against drug-free plates; higher = less susceptible. Active = above 20 in both replicates (the paper's putatively resistant). '<' = one read or none on drug, '>' = one read or none on a drug-free plate. Shares are relative, so most strains fall below 1 when a few take over. Listed are strains with at least 15 reads on both drug-free plates, and hits; most hits rest on fewer reference reads. Replicate rank correlation about 0.5. Edits are read from barcodes.
B1: mukE V95Q (protein)
chain: MSSTNIEQVMPVKLAQALANPLFPALDSALRSGRHIGLDELDNHAFLMDFQEYLEEFYARYNVELIRAPEGFFYLRPRSTTLIPRSVLSELDMMQGKILCYLYLSPERLANEGIFTQQELYDELLTLADEAKLLKLVNNRSTGSDVDRQKLQEKVRSSLNRLRRLGMVWFMGHDSSKFRITESVFRFGADVRAGDDPREAQRRLIRDGEAMPIENHLQLNDETEENQPDSGEEE
B2: mukE L109P (protein)
chain: B1 chain with Q95V, L109P
B3: murA M170A (protein)
chain: MDKFRVQGPTKLQGEVTISGAKNAALPILFAALLAEEPVEIQNVPKLKDVDTSMKLLSQLGAKVERNGSVHIDARDVNVFCAPYDLVKTMRASIWALGPLVARFGQGQVSLPGGCTIGARPVDLHISGLEQLGATIKLEEGYVKASVDGRLKGAHIVMDKVSVGATVTIACAATLAEGTTIIENAAREPEIVDTANFLITLGAKISGQGTDRIVIEGVERLGGGVYRVLPDRIETGTFLVAAAISRGKIICRNAQPDTLDAVLAKLRDAGADIEVGEDWISLDMHGKRPKAVNVRTAPHPAFPTDMQAQFTLLNLVAEGTGFITETVFENRFMHVPELSRMGAHAEIESNTVICHGVEKLSGAQVMATDLRASASLVLAGCIAEGTTVVDRIYHIDRGYERIEDKLRALGANIERVKGE
B4: murA M170W (protein)
chain: B3 chain with A170W
B5: murA M170Q (protein)
chain: B3 chain with A170Q
B6: murC V137Q (protein)
chain: MNTQQLAKLRSIVPEMRRVRHIHFVGIGGAGMGGIAEVLANEGYQISGSDLAPNPVTQQLMNLGATIYFNHRPENVRDASVVVVSSAISADNPEIVAAHEARIPVIRRAEMLAELMRFRHGIAIAGTHGKTTTTAMQSSIYAEAGLDPTFVNGGLVKAAGVHARLGHGRYLIAEADESDASFLHLQPMVAIVTNIEADHMDTYQGDFENLKQTFINFLHNLPFYGRAVMCVDDPVIRELLPRVGRQTTTYGFSEDADVRVEDYQQIGPQGHFTLLRQDKEPMRVTLNAPGRHNALNAAAAVAVATEEGIDDEAILRALESFQGTGRRFDFLGEFPLEPVNGKSGTAMLVDDYGHHPTEVDATIKAARAGWPDKNLVMLFQPHRFTRTRDLYDDFANVLTQVDTLLMLEVYPAGEAPIPGADSRSLCRTIRGRGKIDPILVPDPARVAEMLAPVLTGNDLILVQGAGNIGKIARSLAEIKLKPQTPEEEQHD
B7: murC V401P (protein)
chain: B6 chain with Q137V, V401P
B8: murD V211A (protein)
chain: MADYQGKNVVIIGLGLTGLSCVDFFLARGVTPRVMDTRMTPPGLDKLPEAVERHTGSLNDEWLMAADLIVASPGIALAHPSLSAAADAGIEIVGDIELFCREAQAPIVAITGSNGKSTVTTLVGEMAKAAGVNVGVGGNIGLPALMLLDDECELYVLELSSFQLETTSSLQAVAATILNVTEDHMDRYPFGLQQYRAAKLRIYENAKVCVANADDALTMPIRGADERCVSFGVNMGDYHLNHQQGETWLRVKGEKVLNVKEMKLSGQHNYTNALAALALADAAGLPRASSLKALTTFTGLPHRFEVVLEHNGVRWINDSKATNVGSTEAALNGLHVDGTLHLLLGGDGKSADFSPLARYLNGDNVRLYCFGRDGAQLAALRPEVAEQTETMEQAMRLLAPRVQPGDMVLLSPACASLDQFKNFEQRGNEFARLAKELG
B9: murD V211D (protein)
chain: B8 chain with A211D
B10: murG V99A (protein)
chain: MSGQGKRLMVMAGGTGGHVFPGLAVAHHLMAQGWQVRWLGTADRMEADLVPKHGIEIDFIRISGLRGKGIKALIAAPLRIFNAWRQARAIMKAYKPDVALGMGGYVSGPGGLAAWSLGIPVVLHEQNGIAGLTNKWLAKIATKVMQAFPGAFPNAEVVGNPVRTDVLALPLPQQRLAGREGPVRVLVVGGSQGARILNQTMPQVAAKLGDSVTIWHQSGKGSQQSVEQAYAEAGQPQHKVTEFIDDMAAAYAWADVVVCRSGALTVSEIAAAGLPALFVPFQHKDRQQYWNALPLEKAGAAKIIEQPQLSVDAVANTLAGWSRETLLTMAERARAASIPDATERVANEVSRVARA
B11: murG V99Q (protein)
chain: B10 chain with A99Q
B12: murG V121A (protein)
chain: B10 chain with A99V, V121A
B13: murG V121D (protein)
chain: B10 chain with A99V, V121D

Target: Escherichia coli (laboratory strain)
Assay: barcode share on antibiotic plates over drug-free plates; higher = less susceptible
Settings: antibiotic: gentamicin; 2× MIC (MIC 0.45 µg/mL)
Protocol: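 A pool of E. coli strains, each edited to carry one amino-acid change in an essential protein, was grown for 48 h on minimal glucose agar with or without antibiotic; strain barcodes were sequenced; mean of two replicates.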

Protein | fold change of barcode share
B1 | < 0.0161
B2 | < 0.0195
B3 | < 0.0206
B4 | < 0.00927
B5 | 0.0142 ± 0.0087
B6 | < 0.0116
B7 | < 0.014
B8 | < 0.0107
B9 | < 0.0147
B10 | 0.0491 ± 0.063
B11 | 0.015 ± 0.0076
B12 | 0.00569 ± 0.0019
B13 | < 0.00399

Source: the supplement of paper PMC11876631
